Consider 29 compounds from the antibiotic and cytotoxicity screens of Wong et al. (2023).

Molecules are shown by their SMILES. The list shows a part of the results.

In one assay the test system is HSkMC. Briefly: cytotoxicity call (relative viability < 0.9). The following applies: 10 µM.
Another assay concerns HepG2. Briefly: cytotoxicity call (relative viability < 0.9). Conditions: 10 µM.
The next assay concerns S. aureus RN4220. As to the kind of experiment: growth inhibition call (relative growth <= 0.2). Conditions: 50 µM.

For the compound `C[C@@H]1CN([C@H](C)CO)C(=O)c2cc(NC(=O)Nc3ccccc3)ccc2O[C@H]1CN(C)CC1CCCCC1`, the cytotoxicity call with HSkMC and with HepG2 was “inactive” each time. Moreover, in the assay with S. aureus RN4220, the growth inhibition call was “inactive”.
Take `NCc1cccc(-c2ccccc2)c1`: the cytotoxicity call in the assay with HSkMC and in the assay on HepG2 was “inactive” in each case. Also, the growth inhibition call in the assay on S. aureus RN4220 is “inactive”.
As for `C[C@H](CO)N1C[C@H](C)[C@H](CN(C)C(=O)[C@H](C)c2ccccc2)OCc2ccccc2-c2c(n(C)c3ccccc23)C1=O`, the cytotoxicity call in the assay with HSkMC is “inactive”. The cytotoxicity call in the assay on HepG2 is “active”. Also, the growth inhibition call with S. aureus RN4220 is “inactive”.
Take `COc1ccc(S(=O)(=O)N(C)C[C@H]2OCCCC[C@H](C)Oc3ccc(NC(=O)Nc4cccc5ccccc45)cc3C(=O)N([C@H](C)CO)C[C@H]2C)cc1`: the cytotoxicity call in the assay with HSkMC and in the assay on HepG2 was “inactive” in each case. The growth inhibition call with S. aureus RN4220 was “inactive”.
Turning to `CCCn1c(=O)c(C)cn2nc(N)nc12`, the cytotoxicity call with HSkMC and with HepG2 was “inactive” throughout. For the same compound, the growth inhibition call with S. aureus RN4220 is “inactive”.
On to `C[C@@H]1CCCCO[C@@H](CN(C)C(=O)NC2CCCCC2)[C@@H](C)CN([C@H](C)CO)C(=O)c2cc(NC(=O)CCCCCC(=O)Nc3ccccc3N)ccc2O1`, for which the cytotoxicity call in the assay on HSkMC and in the assay on HepG2 was “inactive” each time. Also, the growth inhibition call with S. aureus RN4220 was “inactive”.
In the case of `C[C@@H](NS(=O)(=O)C1CN(C(=O)OCc2ccccc2)C1)C(N)=O`, the cytotoxicity call in the assay with HSkMC and in the assay with HepG2 was “inactive” throughout. Besides, the growth inhibition call in the assay on S. aureus RN4220 was “inactive”.
`CC(C)N1CC=C[C@@]23O[C@@H]4/C=C\CCCOC(=O)[C@@H]4[C@H]2C(=O)N(CCCO)[C@@H]3C1=O`: the cytotoxicity call in the assay on HSkMC and with HepG2 was “inactive” each time. Moreover, the growth inhibition call with S. aureus RN4220 was “inactive”.
Regarding `CN1CC[C@@]2(C(=O)N3CCOCC3)CCN(S(C)(=O)=O)CC[C@H]12`, the cytotoxicity call with HSkMC and in the assay on HepG2 was “inactive” throughout. Also, in the assay with S. aureus RN4220, the growth inhibition call is “inactive”.
Take `C[C@@H]1CCCCO[C@H](CN(C)Cc2ccc(C(F)(F)F)cc2)[C@H](C)CN([C@H](C)CO)C(=O)c2cc(NC(=O)c3ccncc3)ccc2O1`: the cytotoxicity call in the assay on HSkMC and with HepG2 was “inactive” in each case. Moreover, in the assay with S. aureus RN4220, the growth inhibition call was “inactive”.
With `Nc1nc(=O)c2[nH]c(=O)cnc2[nH]1`, the cytotoxicity call in the assay on HSkMC and in the assay with HepG2 was “inactive” throughout. Besides, in the assay on S. aureus RN4220, the growth inhibition call is “inactive”.
On to `COc1ccc(NC(=O)N(C)C[C@@H]2Oc3ccc(NC(=O)C4CC4)cc3CC(=O)N([C@@H](C)CO)C[C@H]2C)cc1`, for which the cytotoxicity call in the assay with HSkMC and in the assay with HepG2 was “inactive” in each case. Moreover, in the assay with S. aureus RN4220, the growth inhibition call is “inactive”.
Take `COc1ccc(S(=O)(=O)N(C)C[C@@H]2Oc3ccc(NC(=O)Nc4cccc(C(F)(F)F)c4)cc3CC(=O)N([C@@H](C)CO)C[C@@H]2C)cc1Cl`: the cytotoxicity call in the assay with HSkMC and in the assay with HepG2 was “active” each time. Besides, in the assay with S. aureus RN4220, the growth inhibition call was “inactive”.
Consider `CCCNC(=O)N(C)C[C@H]1Oc2cc(C#Cc3cccc(F)c3)ccc2S(=O)(=O)N([C@H](C)CO)C[C@H]1C`, for which the cytotoxicity call in the assay with HSkMC and in the assay on HepG2 was “inactive” each time. For the same compound, in the assay with S. aureus RN4220, the growth inhibition call was “inactive”.
For `CN(C)CCO[C@@H]1CC[C@@H]2[C@H]1OCCN2S(C)(=O)=O`, the cytotoxicity call in the assay with HSkMC and in the assay on HepG2 was “inactive” each time. In the assay on S. aureus RN4220, the growth inhibition call was “inactive”.
Turning to `C[N+](C)(C)C[C@H](O)CC(=O)O`, the cytotoxicity call in the assay with HSkMC and with HepG2 was “inactive” throughout. In addition, the growth inhibition call with S. aureus RN4220 is “inactive”.
Consider `C[C@H](CO)N1C[C@H](C)[C@@H](CN(C)Cc2ccccc2)OCCCC[C@H](C)Oc2ccc(NC(=O)Nc3ccc(C(F)(F)F)cc3)cc2C1=O`, for which the cytotoxicity call with HSkMC and in the assay with HepG2 was “active” in each case. Moreover, the growth inhibition call with S. aureus RN4220 is “inactive”.
For the compound `NCCn1cccc1`, the cytotoxicity call in the assay on HSkMC and with HepG2 was “inactive” in each case. The growth inhibition call in the assay on S. aureus RN4220 was “inactive”.
In the case of `O=C(C[C@@H]1CC=CCC[C@H](Cc2ccc(F)cc2)C(=O)OCCNC1=O)N[C@@H](CO)Cc1ccccc1`, the cytotoxicity call in the assay with HSkMC and in the assay on HepG2 was “inactive” in each case. Moreover, the growth inhibition call with S. aureus RN4220 was “inactive”.
For `Cc1ccc(S(=O)(=O)N(C)C[C@H]2Oc3ccc(NC(=O)Cn4cnnn4)cc3C(=O)N([C@@H](C)CO)C[C@H]2C)cc1`, the cytotoxicity call in the assay with HSkMC and in the assay on HepG2 was “inactive” throughout. Besides, the growth inhibition call in the assay on S. aureus RN4220 is “inactive”.
Take `COc1ccc(NC(=O)N(C)C[C@@H]2Oc3ccc(NC(=O)Cn4cnnn4)cc3C(=O)N([C@@H](C)CO)C[C@@H]2C)cc1`: the cytotoxicity call with HSkMC and with HepG2 was “inactive” in each case. In addition, the growth inhibition call in the assay on S. aureus RN4220 is “inactive”.
Regarding `C[C@@H]1CN([C@H](C)CO)C(=O)c2cc(NC(=O)Nc3cccc4ccccc34)ccc2O[C@@H](C)CCCCO[C@H]1CN(C)S(=O)(=O)c1cn(C)cn1`, the cytotoxicity call in the assay on HSkMC and in the assay with HepG2 was “inactive” in each case. The growth inhibition call in the assay on S. aureus RN4220 is “inactive”.
Consider `C#Cc1ccc(C(=O)NO)cc1`, for which the cytotoxicity call in the assay with HSkMC and in the assay on HepG2 was “inactive” in each case. Also, the growth inhibition call with S. aureus RN4220 is “inactive”.
With `C[C@@H]1CN([C@@H](C)CO)C(=O)CCCn2nncc2CO[C@@H]1CN(C)S(=O)(=O)c1ccc(Cl)cc1`, the cytotoxicity call with HSkMC and in the assay on HepG2 was “inactive” each time. In addition, the growth inhibition call in the assay on S. aureus RN4220 was “inactive”.
`CC(=O)[C@]1(O)Cc2c(O)c3c(c(O)c2[C@@H](O[C@@H]2C[C@@H](N)[C@H](O)[C@@H](C)O2)C1)C(=O)c1c(O)cccc1C3=O`: the cytotoxicity call with HSkMC and with HepG2 was “active” throughout. Besides, the growth inhibition call in the assay on S. aureus RN4220 was “active”.
On to `Cc1ccnc(NS(=O)(=O)c2ccc(N)cc2)n1`, for which the cytotoxicity call with HSkMC and in the assay with HepG2 was “inactive” in each case. Also, in the assay with S. aureus RN4220, the growth inhibition call is “inactive”.
Consider `CCC(=O)N(C)C[C@H]1Oc2ncc(C#C[C@@H](C)O)cc2C(=O)N([C@@H](C)CO)C[C@H]1C`, for which the cytotoxicity call in the assay on HSkMC (human skeletal muscle cells) and in the assay with HepG2 was “inactive” each time. For the same compound, the growth inhibition call in the assay with S. aureus RN4220 was “inactive”.
Take `CC(=O)OC1CC(OC(C)=O)C2(C)C(CC(OC(C)=O)C3(C)C4=CC(=O)OC(c5ccoc5)C4(C)CCC32)C1(C)C` (configuration not stated): the cytotoxicity call in the assay with HSkMC and in the assay on HepG2 was “inactive” each time. Further, the growth inhibition call in the assay on S. aureus RN4220 was “inactive”.
Consider `COc1ccc(CCN2C(=O)[C@@]3(c4ccc([N+](=O)[O-])cc4)CC(=O)N(CC45CC6CC(CC(C6)C4)C5)[C@@H]3c3ccc(CO)cc32)cc1`, for which the cytotoxicity call in the assay with HSkMC and with HepG2 was “inactive” in each case. For the same compound, the growth inhibition call with S. aureus RN4220 is “inactive”.
